Measurements taken from publication PMC12820563.
The list shows a part of the results. The list includes weakly bound sequences.

Target: T1, MBP-FoxP3dN (UniProt Q99JB6)
T1 sequence: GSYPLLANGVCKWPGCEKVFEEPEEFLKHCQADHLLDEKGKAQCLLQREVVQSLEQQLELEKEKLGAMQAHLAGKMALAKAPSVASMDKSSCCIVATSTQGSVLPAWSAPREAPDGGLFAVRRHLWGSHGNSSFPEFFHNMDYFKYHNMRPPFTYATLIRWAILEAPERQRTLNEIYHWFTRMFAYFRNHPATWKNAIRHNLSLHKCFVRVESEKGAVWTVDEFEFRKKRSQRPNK
Test: PD-seq (MBP pull-down with sequencing)
Conditions: 20 mM Tris-HCl pH 7.5, 100 mM NaCl, 1.5 mM MgCl2, 0.4 uM protein, 0.1 uM dsDNA library, 30 min, room temperature, amylose pull-down; high values mean tight binding; double strand, one strand shown

| Sequence | binding signal (RPM ratio (pull-down/input)) |
| --- | --- |
| GATGATTGTTCTCCCAGCTGATGAATTTCTGCGCTCGAGTAAACAAATTTTCCTAATCTTTCTGTTCAAGCGCCATCTAC | 0.46 |
| GATGATTGTTCTCCCAGCTGATGAATTATCCAATTCGAGTAAACAAATTTTCCTAATCTTTCTGTTCAAGCGCCATCTAC | 0.269 |
| GATGATTGTTCTCCCAGCTGATGAATTCCATTAATCGAGTAAACAAATTTTCCTAATCTTTCTGTTCAAGCGCCATCTAC | 0.25 |
| GATGATTGTTCTCCCAGCTGATGAATTGGCGAAATCGAGTAAACAAATTTTCCTAATCTTTCTGTTCAAGCGCCATCTAC | 0.393 |
| GATGATTGTTCTCCCAGCTGATGAATTTACGACTTCGAGTAAACAAATTTTCCTAATCTTTCTGTTCAAGCGCCATCTAC | 0.711 |
| GATGATTGTTCTCCCAGCTGATGAATTAGCTTTGTCGAGTAAACAAATTTTCCTAATCTTTCTGTTCAAGCGCCATCTAC | 2.56 |
| GATGATTGTTCTCCCAGCTGATGAATTAGATGAGTCGAGTAAACAAATTTTCCTAATCTTTCTGTTCAAGCGCCATCTAC | 0.504 |
| GATGATTGTTCTCCCAGCTGATGAATTAGCAACGTCGAGTAAACAAATTTTCCTAATCTTTCTGTTCAAGCGCCATCTAC | 1.13 |
| GATGATTGTTCTCCCAGCTGATGAATTGCGGAGATCGAGTAAACAAATTTTCCTAATCTTTCTGTTCAAGCGCCATCTAC | 0.553 |
| GATGATTGTTCTCCCAGCTGATGAATTACTTGTGTCGAGTAAACAAATTTTCCTAATCTTTCTGTTCAAGCGCCATCTAC | 0.98 |
| GATGATTGTTCTCCCAGCTGATGAATTTTTCGACTCGAGTAAACAAATTTTCCTAATCTTTCTGTTCAAGCGCCATCTAC | 0.265 |
| GATGATTGTTCTCCCAGCTGATGAATTCCACGCATCGAGTAAACAAATTTTCCTAATCTTTCTGTTCAAGCGCCATCTAC | 0.972 |
| GATGATTGTTCTCCCAGCTGATGAATTGTTCCCATCGAGTAAACAAATTTTCCTAATCTTTCTGTTCAAGCGCCATCTAC | 0.478 |
| GATGATTGTTCTCCCAGCTGATGAATTTCTCTACTCGAGTAAACAAATTTTCCTAATCTTTCTGTTCAAGCGCCATCTAC | 0.313 |
| GATGATTGTTCTCCCAGCTGATGAATTTGAACATTCGAGTAAACAAATTTTCCTAATCTTTCTGTTCAAGCGCCATCTAC | 0.495 |
| GATGATTGTTCTCCCAGCTGATGAATTGTTCCTATCGAGTAAACAAATTTTCCTAATCTTTCTGTTCAAGCGCCATCTAC | 0.556 |
| GATGATTGTTCTCCCAGCTGATGAATTAACGTATTCGAGTAAACAAATTTTCCTAATCTTTCTGTTCAAGCGCCATCTAC | 1.22 |
| GATGATTGTTCTCCCAGCTGATGAATTAACAACCTCGAGTAAACAAATTTTCCTAATCTTTCTGTTCAAGCGCCATCTAC | 0.578 |
